Laboratory results reported in PubChem BioAssay AID686978 (National Center for Advancing Translational Sciences (NCATS), 2013).
Out of some 420,000 compounds screened, about 64,000 (15%) were called active. This list was built around the results that the source calls inconclusive (neither active nor inactive); the mix of calls is not that of the screen. The call rests on the fitted dose curve; in most records, active means well fitted inhibition curve with a large enough effect; inconclusive means small, poorly fitted or top-dose-only effect; inactive means flat fitted curve, though single readings scatter. Potencies of inconclusive entries are left out as doubtful fits.

Experiment: qHTS for Inhibitors of human tyrosyl-DNA phosphodiesterase 1 (TDP1): qHTS in cells in absence of CPT; further: nearly all actives have a fitted effect of over 55% in size
Conditions: DT40 Tdp1-/- hTDP1 cells, no CPT, ATP luminescence, 48 h; activity change, negative = growth inhibition: at 46.2 µM (top of the series)
In short: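 Chicken DT40 Tdp1-/- cells complemented with human TDP1, screened without camptothecin (DMSO vehicle only), 400 cells/well. Compounds pin-transferred, cells incubated at 37 °C for at least 48 hr. Growth read as ATP-dependent luminescence (CellTiter-Glo, 30 min at RT).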
On the % scale 0 is the no-effect control and ±100 the full control effect; potency means the concentration at half of the fitted maximal effect; tags describe the fitted curve by direction and shape.

| SMILES | activity change, negative = growth inhibition | Potency |
| --- | --- | --- |
| O=C(Nc1ccc2c(c1)N(Cc1ccccc1)C(=O)c1ccccc1S2)NC1CC1 | inactive: -12.4% | – |
| Cc1cccc2sc(N(CCCN(C)C)C(=O)c3ccc4ncsc4c3)nc12 | – | inconclusive [inhibitor, single point] |
| Cc1ccc(CNC(=O)Cc2cn(C)c3ccccc23)cc1 | inactive: -10.4% | – |
| COc1ccc(NC(=O)CSc2nc(SC)ns2)cc1 | – | inconclusive [inhibitor, single point] |
| COc1cccc(CN(C)C(=O)c2cc(S(=O)(=O)N3CCCC3)ccc2C)c1OC | – | inconclusive [inhibitor, single point] |
| Cc1ccc(N2CCn3c2nc2c3c(=O)n(CCCc3ccccc3)c(=O)n2C)cc1C | inactive: -28.8% | – |
| Cc1ccc(-c2cc(C(=O)Nc3cccnc3)c3ccccc3n2)s1 | – | inconclusive [inhibitor, single point] |
| COc1cc(OC)nc(Oc2ccc(N)c(C)c2)n1 | inactive: -21.4% | – |
| Cc1cc(-c2ccc(S(=O)(=O)NCc3ccc(Cl)cc3)cc2)on1 | – | inconclusive [inhibitor, single point] |
| Cc1cccn2c(=O)c3cc(S(=O)(=O)c4ccc(Br)cc4)c(=N)n(C4CCCC4)c3nc12 | – | inconclusive [inhibitor, full curve] |
| Cc1nn(Cc2c(F)cccc2Cl)c(=O)c2ccccc12 | – | inconclusive [inhibitor, partial curve] |
| COCCCN1C(=O)c2[nH]nc(-c3ccccc3O)c2C1c1ccc(Cl)cc1 (stereo unspecified) | – | inconclusive [inhibitor, single point] |
| COC(=O)c1cnc(N2CCCN(S(=O)(=O)c3ccccc3)CC2)nc1C(F)(F)F | – | inconclusive [inhibitor, single point] |
| C[C@H]1CN([C@@H](C)CO)C(=O)CCCn2nncc2CO[C@@H]1CN(C)Cc1ccc2c(c1)OCCO2 | inactive: -17.9% | – |
| COc1ccc(/C=N/Nc2nn3cnnc3c3ccccc23)cc1 | – | inconclusive [inhibitor, single point] |
| COc1ccc(C(=O)OCC(=O)N(Cc2ccccc2)Cc2ccccc2)c(O)c1 | – | active: 18.4 µM |
| O=C1CC(=O)N(CCc2ccc(F)cc2)C(=O)N1 | inactive: -29.3% | – |
| Cc1ccc(Cn2ccc(NC(=O)c3cc(-c4cccs4)on3)n2)cc1 | – | inconclusive [inhibitor, partial curve] |
| COc1ccc(-c2c3c(cc(C)[n+]2[O-])oc2ccc(OC)cc23)cc1 | – | inconclusive [inhibitor, full curve, poor fit] |
| Cc1c(NC(=O)C2CCN(S(=O)(=O)c3cccs3)CC2)c(=O)n(-c2ccccc2)n1C | inactive: 0.0217% | – |
| COc1ccc(OCC(=O)NCC(c2ccc(OC)cc2)N2CCCCC2)cc1 (stereo unspecified) | – | inactive |
| O=c1[nH]c(=O)n(C2CCCCC2)c(O)c1C1=Nc2ccccc2SC(c2ccccc2)C1 (stereo unspecified) | inactive: -11.9% | – |
| CC(=O)c1cccc(S(=O)(=O)N2CCN(c3nc4cc(C)cc(C)c4cc3C#N)CC2)c1 | – | inconclusive [inhibitor, single point] |
| CCOc1nc2cnccc2n(CC(=O)Nc2ccc(C)c(C)c2)c1=O | inactive: -21.4% | – |

| SMILES | activity change, negative = growth inhibition | Potency |
| --- | --- | --- |
| COc1cc(NC(=O)c2ccccn2)cc(OC)c1OC | – | inconclusive [inhibitor, single point] |
| COc1cccc(/C=C/C(=O)NNC(=O)c2ccncc2)c1OC | inactive: -3.9% | – |
| CC[C@]12c3[nH]c4ccc(OC)cc4c3CCN1C(=O)C(CC(=O)NCC13CC4CC(CC(C4)C1)C3)C[C@@H]2C(=O)N1CCN(C(=O)C2CC2)CC1 (stereo partly specified) | – | inconclusive [inhibitor, single point] |
| O=C(NCCS(=O)(=O)N1CCN(c2ccccc2F)CC1)c1ccco1 | – | inconclusive [inhibitor, single point] |
| COc1ccc(S(=O)(=O)N2CCOC2CNC(=O)C(=O)NCc2ccccc2Cl)cc1 (stereo unspecified) | – | inconclusive [inhibitor, single point] |
| Cn1c(C(=O)N2CCOCC2)cc2c(=O)n3ccccc3nc21 | inactive: -4.9% | – |
| C[C@@H]1C(=O)NC2=Nc3cccc(Cl)c3CN21 | inactive: -29.4% | – |
| COc1cc(OC)c(N(C)S(=O)(=O)c2cccc(C(=O)OCC(=O)N(C)Cc3ccccc3)c2)cc1Cl | – | active: 23.1 µM |
| COc1ccccc1NC(=O)C1=C(C)Nc2nc(SCc3ccccc3Cl)nn2C1c1ccccn1 (stereo unspecified) | – | inconclusive [inhibitor, partial curve] |
| Cc1cccc(OCC(=O)N(Cc2ccc(C(C)(C)C)cc2)Cc2ccco2)c1 | – | active: 10.3 µM |
| COc1cccc(/C=N/Nc2nc(N3CCCC3)nc(N3CCCC3)n2)c1O | – | active: 20.6 µM |
| CC(C)c1ccc(NC(=O)C(C)N(c2ccccc2)S(C)(=O)=O)cc1 (stereo unspecified) | – | inconclusive [inhibitor, partial curve] |
| Cc1cccc(OCc2nnc(SCC(=O)c3c(N)n(C4CC4)c(=O)[nH]c3=O)o2)c1 | – | inconclusive [inhibitor, full curve, poor fit] |
| Cc1ccc(C(c2cccc(Br)c2)c2c(C)[nH]c3ccccc23)s1 (stereo unspecified) | inactive: -80.9% | – |
| O=C(CSc1nc2nc(-c3cccs3)cc(C(F)(F)F)c2c(=O)[nH]1)C(F)(F)F | – | inconclusive [inhibitor, single point] |
| O=C(/C=C/c1cccs1)c1cc(Cl)ccc1O | – | inconclusive [inhibitor, single point] |
| COCCNC(=S)N1CCN(C)CC1 | inactive: 23.5% | – |
| Cc1c(NC(=O)COC(=O)c2ccc(F)c(S(=O)(=O)N3CCOCC3)c2)c(=O)n(-c2ccccc2)n1C | inactive: -2.43% | – |
| Cc1cc(/C=N/NC(=O)c2cccc(F)c2)c(C)n1-c1ccccc1 | – | active: 29.1 µM |
| OCC1C2c3ccccc3C(c3ccccc32)C1CO (stereo unspecified) | – | inconclusive [inhibitor, single point] |
| COc1cccc(CC(=O)OCC(=O)NCc2ccc3c(c2)OCO3)c1 | inconclusive: -26.4% [inhibitor] | – |
| CSc1ccc(CCNS(=O)(=O)c2ccc3c(c2)C(C)(C)C(=O)N3C)cc1 | – | inconclusive [inhibitor, single point] |
| COC(=O)[C@@]1(Cc2ccc(F)cc2)[C@H]2c3cc(C(=O)N4CCCC4)n(Cc4ccc(C(F)(F)F)nc4)c3C[C@H]2CN1C(=O)c1ccccc1 | – | inconclusive [inhibitor, single point] |
| CCCCOc1ccc(N=Nc2ccc(N)nc2N)cn1 | – | inconclusive [inhibitor, partial curve] |

| SMILES | activity change, negative = growth inhibition | Potency |
| --- | --- | --- |
| O=C(Nc1ccc(N2C(=O)C3C4C=CC(C4)C3C2=O)cc1)Nc1cccnc1 (stereo unspecified) | inactive: -20% | – |
| O=C(CSc1nn(-c2ccc(F)cc2)c(=S)s1)NCC1CCCO1 (stereo unspecified) | inactive: -19.1% | – |
| Cc1nnc2c3ccccc3c(-c3ccccc3)nn12 | – | inconclusive [inhibitor, single point] |
| Cc1ccc(Cc2cnc(NC(=O)c3cccs3)s2)cc1 | – | inconclusive [inhibitor, single point] |
| CCOC(=O)N1CCN(Cc2nc3cc([N+](=O)[O-])ccc3n2C)CC1 | inactive: -17.8% | – |
| CC1Sc2ccccc2N(Cc2ccccc2)C1=O (stereo unspecified) | – | inconclusive [inhibitor, single point] |
| O=C1c2ccccc2NC(c2ccc(Br)s2)N1O (stereo unspecified) | – | active: 11.6 µM |
| Cn1cccc1C(=O)NCC1CCCCC1 | inactive: 4.39% | – |
| CCOc1c(Br)cc(CNc2ncn[nH]2)cc1OC | inactive: -26.4% | – |
| CCCCN(C(=O)CCC(=O)Nc1cc(C)on1)C(C(=O)NC1CCCC1)c1cccc(OC)c1 (stereo unspecified) | – | inconclusive [inhibitor, partial curve, poor fit] |
| COc1ccc(Cl)cc1NC(=O)CN(C)CC(=O)Nc1ccc(Br)cc1 | – | inconclusive [inhibitor, single point] |
| C#CCOCCOCCOCCNc1nc(N2CCN(C(=O)[C@H](CCCCN)n3cc(CN)nn3)CC2)nc(N2CCN(C(=O)[C@H](CCC(=O)O)n3cc([C@@H](N)CCSC)nn3)CC2)n1 | – | inconclusive [inhibitor, single point] |
| Cc1cccc(S(=O)(=O)CC(=O)Nc2nc(-c3ccccc3)cs2)c1 | – | inconclusive [inhibitor, partial curve] |
| C/C(=N\NC(=O)c1c(C)nc2ccccn12)c1ccccc1F | inactive: -10.7% | – |
| Cc1cc(OCC(=O)N2CCCCCC2)ccc1[N+](=O)[O-] | – | inconclusive [inhibitor, single point] |
| CCN1C(=O)/C(=C/c2nc3ccccc3c(=O)[nH]2)c2ccccc21 | – | inconclusive [inhibitor, partial curve, poor fit] |
| Cc1ccc2sc(C)[n+](CCO)c2c1 | – | inconclusive [inhibitor, single point] |
| CC(C)(O)[C@H]1Cc2cc3ccc(=O)oc3cc2O1 | inactive: 9.71% | – |
| CCOc1cc(/C=N/Nc2nncc(-c3ccccc3)n2)ccc1O | – | inconclusive [inhibitor, single point] |
| Cc1ccc(C)c(CN2C(=O)c3ccccc3S(=O)(=O)c3ccc(C(=O)NCCCN4CCCC(C)C4)cc32)c1 (stereo unspecified) | – | inconclusive [inhibitor, single point] |
| Cc1cccc2c1-c1sc(C(=O)N3CCCCC3)cc1CO2 | – | inconclusive [inhibitor, single point] |
| COc1ccc(C(=O)C(O)C(c2ccc(C)cc2)N2CCOCC2)cc1OC (stereo unspecified) | inactive: -3.85% | – |
| COc1cc2c(C(=O)NCCN(C)C)cn(CC(C)C)c(=O)c2cc1OC | inactive: 9.11% | – |
